Reference: PMC4336329 (PLoS ONE, 2015)
The whole screen tested about 310,000 compounds, of which about 2,200 (0.71%) showed an effect of 50% or more. Effects have a minus sign here. This is one part of the list.

These compounds were tested against human ether-à-go-go-related gene (hERG) potassium channel (human, UniProt Q12809) (assay: primary screen, population patch clamp on CHO cells stably expressing hERG).
Chain of human ether-à-go-go-related gene (hERG) potassium channel (Q12809 whole entry, looked up): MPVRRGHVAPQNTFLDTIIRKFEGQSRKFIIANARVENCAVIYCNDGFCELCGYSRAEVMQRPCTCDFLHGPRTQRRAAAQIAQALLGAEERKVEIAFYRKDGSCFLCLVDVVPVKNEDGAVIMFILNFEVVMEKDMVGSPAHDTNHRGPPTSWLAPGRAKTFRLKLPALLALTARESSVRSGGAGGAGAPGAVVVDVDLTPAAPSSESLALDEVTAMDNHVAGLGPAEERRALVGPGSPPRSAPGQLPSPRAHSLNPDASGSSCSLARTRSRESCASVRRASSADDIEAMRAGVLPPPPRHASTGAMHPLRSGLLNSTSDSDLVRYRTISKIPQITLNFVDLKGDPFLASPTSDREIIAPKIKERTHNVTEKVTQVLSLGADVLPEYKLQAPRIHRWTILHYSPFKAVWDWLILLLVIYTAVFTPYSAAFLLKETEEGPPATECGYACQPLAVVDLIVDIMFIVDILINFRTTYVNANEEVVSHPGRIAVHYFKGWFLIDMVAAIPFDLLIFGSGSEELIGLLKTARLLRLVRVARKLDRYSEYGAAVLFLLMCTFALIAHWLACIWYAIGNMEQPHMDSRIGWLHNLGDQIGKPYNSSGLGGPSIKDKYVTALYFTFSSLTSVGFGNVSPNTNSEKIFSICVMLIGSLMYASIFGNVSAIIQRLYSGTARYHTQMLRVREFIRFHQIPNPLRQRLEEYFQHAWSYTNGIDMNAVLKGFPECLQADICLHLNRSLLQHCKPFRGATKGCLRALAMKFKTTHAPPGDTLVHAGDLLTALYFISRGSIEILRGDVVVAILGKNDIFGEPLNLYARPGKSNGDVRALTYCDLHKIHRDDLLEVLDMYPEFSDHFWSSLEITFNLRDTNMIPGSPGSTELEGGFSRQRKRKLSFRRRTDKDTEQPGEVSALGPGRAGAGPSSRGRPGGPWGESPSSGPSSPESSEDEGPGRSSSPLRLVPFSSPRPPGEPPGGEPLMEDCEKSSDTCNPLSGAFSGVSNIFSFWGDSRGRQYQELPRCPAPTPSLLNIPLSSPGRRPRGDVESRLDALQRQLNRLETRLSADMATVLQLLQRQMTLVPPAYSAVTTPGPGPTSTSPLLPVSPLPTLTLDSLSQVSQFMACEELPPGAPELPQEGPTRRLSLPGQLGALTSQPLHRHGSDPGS

SMILES | hERG current change (%, negative = inhibition) at 1uM [%]
CCN(CC)C(=O)COc1ccc(S(=O)(=O)N2CCCC2)cc1 | 12.3
O=C(O)c1ccc2c3c(cccc13)C(=O)N(OS(=O)(=O)c1ccccc1)C2=O | 12.5
CCc1ccc2c(COC(=O)c3n[nH]c4ccccc34)cc(=O)oc2c1 | 14.2
Cc1ccc(C(C)n2cc(C(=O)NCc3ccccn3)nn2)cc1 (stereo not shown) | 12.9
CC(=C\C(=O)O)/C(=C/c1ccco1)C(=O)O | 4.06
COc1cc(C=O)c(Br)cc1OCC(=O)NCCc1ccccc1 | 6.21
Cc1cccc(NS(=O)(=O)c2nnc(NC(=O)c3ccc(C)c(C)c3)s2)c1 | 12.6
CC(C)C1Cc2nc(Cl)c(C#N)cc2CO1 (stereo not shown) | 6.32
CC(=O)N(CN1C(=O)CCC1=O)c1ccc(Cl)c(Cl)c1 | 4.95
CC1(C)Cc2c(sc3nc(C4CCCCC4)n(N)c(=O)c23)CO1 | 13.9
CC1CCCCN1CCNC(=O)C1CC(=O)N(c2ccc(F)c(Cl)c2)C1 (stereo not shown) | -31.3
NC(=O)CN(c1ccc([N+](=O)[O-])cc1)S(=O)(=O)c1ccccc1 | 1.01
Cc1cc(C)c2nc(NC(=O)c3ccco3)sc2c1 | 16.6
CN1CCC(NC(=O)Nc2ccc(Br)cc2)CC1 | 3.59
Cc1[nH]c(=O)[nH]c(=S)c1C(=O)Nc1ccc(Cl)c(Cl)c1 | 16
CCn1c(SCC(=O)O)nnc1C1CCCCC1 | 5.22
CCCCN(C(=O)CNC(=O)c1ccco1)C(C(=O)NC1CCCCC1)c1cccnc1 (stereo not shown) | 2.11
Cc1cn(C2C=CC(CO)O2)c(=O)[nH]c1=O (stereo not shown) | 7.44
COC(=O)Cc1c(C)c2ccc(OC(C)C)cc2oc1=O | 4.34
COc1ccc(CNc2nc3nc(C)c(Cl)c(=O)n3[nH]2)cc1OC | 5.7
COC(=O)[C@@H]1C[C@@H]2CC[C@@H](O)C[C@@H]2N1Cc1ccc(C(F)(F)F)cc1 | -0.86
O=C(Nc1c(S(=O)(=O)c2ccccc2)csc1Br)c1ccccc1Cl | 15.4
COC(=O)C1CCC(C)(C(=O)Nc2ccccc2)C1(C)C (stereo not shown) | 8.91

SMILES | hERG current change (%, negative = inhibition) at 1uM [%]
COCCNC(=O)CCn1nc(-c2ccc(Cl)cc2)ccc1=O | -0.638
Cn1c(CSCc2ccc(F)cc2)nnc1SCC(=O)Nc1cccc(C(=O)O)c1 | 15.4
CC1CN(S(=O)(=O)c2cccc(C(=O)OC/C(O)=C(\C#N)c3nc4ccccc4[nH]3)c2)CC(C)O1 (stereo not shown) | -0.741
CSc1nnc2c(n1)c(C)nn2-c1cccc(C)c1 | 3.47
CCOc1ccc(NC(=O)COC(=O)c2ccc3c(c2)OCO3)cc1 | 9.61
COC(=O)CCC(=O)OC1(C)C(=O)C=C2C=C(C3CC3)N(Cc3ccco3)C=C2C1=O (stereo not shown) | 8.69
O=C(NCC1CCCO1)C1CCN(C2CCN(C3CCCCCC3)CC2)CC1 (stereo not shown) | 10.6
Cc1cc[n+](-c2nc([O-])sc2/C=N/Nc2ccc([N+](=O)[O-])cc2)cc1 | 11.2
O=C(CSc1nc2ccc(Nc3nc(N4CCOCC4)nc(N4CCOCC4)n3)cc2s1)Nc1ccccc1F | 14.4
CCC(=O)Nc1ccc(NC(=O)c2cccc3c(Br)cccc23)cc1 | 4.85
Cc1noc2ncnc(Oc3ccccc3Cl)c12 | 17.6
CCOC(=O)c1c(NC(=O)c2cccs2)sc(C(=O)N(C)C)c1C | 0.872
Cc1cccc(NCCC(=O)c2ccc([N+](=O)[O-])cc2)c1C | 5.54
CCc1c(O)nc(SCC(=O)Nc2ccc(Br)cc2)n(-c2ccc(C)cc2)c1=O | 13
COc1ccc2c(c1)c1ncn(CCN3CCCC3)c(=O)c1n2C | 1.62
O=C1c2ccccc2-c2nnc(-c3ccc(O)cc3)cc21 | 5.44
NC(=O)c1ccsc1NC(=O)COC(=O)Cc1ccccc1 | 7.04
O=C(CCCNS(=O)(=O)c1cccc2nsnc12)NC1CCCCC1 | 0.151
CC(=O)Nc1c2c(nn1-c1ccccc1C)CSC2 | 12.8
Clc1ccc(N=C2SCC3CCCCN23)cc1 (stereo not shown) | 15.3
CCOc1cc(C(c2c(C)[nH][nH]c2=O)c2c(C)[nH][nH]c2=O)ccc1OS(=O)(=O)c1ccccc1 | -3.72
O=C(N/N=C/c1ccco1)C1CC1c1ccccc1 (stereo not shown) | 6.62
O=C(N/N=C/c1ccccc1)c1ccc(OCc2ccccc2)cc1 | 2.61

SMILES | hERG current change (%, negative = inhibition) at 1uM [%]
O=C(NCCNC(=O)c1ccc(Cl)cc1Cl)c1ccco1 | 12
Cc1ccc(C(=O)Nc2onc(C)c2C#N)cc1 | 5.73
CCCCn1c(N)c(N(CC)C(=O)c2cc(CC)c(C)s2)c(=O)[nH]c1=O | -2.08
CCCCC(O)(CCCC)C(=O)N/N=C(\C)c1ccc(Cl)cc1 | -16.3
O/N=C/c1ccc(-c2cc(Cl)ccc2Cl)o1 | 2.88
Cc1ccc(O)c(N)c1 | 4.74
O=C(Cn1ncc2c(=O)oc3ccccc3c21)NCC1COc2ccccc2O1 (stereo not shown) | 6.8
O=C(NCc1ccccc1)c1ccccc1NC(=O)C1CCCCC1 | 22.4
CCN1C(=O)[C@H]2[C@@H](c3ccc(-c4ccccc4)cc3)N[C@@](Cc3ccccc3)(C(=O)OC)[C@H]2C1=O.O=C(O)C(F)(F)F | 2.63
Cc1ccc(O)c(NC(=O)c2ccc3c(c2)C(=O)N(Cc2ccco2)C3=O)c1 | 9.74
Cc1cnc(NC2=NCCC2)s1 | 10.6
COc1ccc(C(=O)NCCS(=O)(=O)N(C)C2CCCCC2)cc1 | -0.94
Cc1cc(C)c(-n2[nH]nnc2=S)c(C)c1 | 8.4
CC(NC(=O)Nc1ccc(F)cc1F)c1ccncc1 (stereo not shown) | 9.09
COc1ccccc1N(C(=O)CN1C(=O)c2ccccc2S1(=O)=O)C(C(=O)NCC1CCCO1)c1ccc(F)cc1 (stereo not shown) | 8.21
Cc1nc(CN2CCN(C(=O)c3ccc(C(C)(C)C)cc3)CC2)cs1.Cl | 4.42
CC(NS(=O)(=O)c1ccc(N)cc1)C1CC2CCC1C2 (stereo not shown) | 9.12
CCOC(=O)Cc1csc(NS(=O)(=O)c2ccc(OC)cc2)n1 | 0.922
COCCCNC(=O)Nc1ccc2c(c1)N(C)C(=O)CS2 | 3.56
NS(=O)(=O)c1ccc(CNC(=O)Cc2c(F)cccc2Cl)cc1 | 20.6
CCCc1nc(SCC(=O)N2CCc3ccccc3C2)c2ccccc2n1 | 0.708
Cc1cc(C)nc(SCCN2CCOCC2)n1.Cl | 12.4
COCc1cc(OC(=O)N(C)C)nc(-c2ccccc2)n1 | 10.9

SMILES | hERG current change (%, negative = inhibition) at 1uM [%]
C#CCN1C(=O)S/C(=C\c2ccc(-c3ccc(Cl)c(C(=O)O)c3)o2)C1=O | 17.2
CCOC(=O)C1CCN(S(=O)(=O)c2cccc(-c3cn4cccnc4n3)c2)CC1 | 4.76
O=c1c(Cl)c(NCCO)cnn1-c1cccc(Cl)c1 | 13.3
COc1ccc([N+](=O)[O-])cc1-n1cccc1 | 5.41
CCCCc1ccc(NC(=S)NCc2cccc(OC)c2)cc1 | 7.95
NC(=O)NNC(=S)Nc1cccc2ccccc12 | 14.5
Cc1cccc(NC(=O)COc2ccc(/C=C\c3[nH]c(=O)[nH]c(=O)c3[N+](=O)[O-])cc2)c1 | 18.9
C[n+]1c(-c2ccccc2)c2cc(N)ccc2c2ccc(N)cc21.[Br-] | 15.1
COc1cc(NC(=O)CCc2c(C)nc3nc(C)nn3c2C)cc(OC)c1 | -12.9
O=C(O)c1ccc(Cl)c(S(=O)(=O)Nc2ccccc2C(=O)Nc2ccc(Cl)cc2)c1 | 14.9
Cc1ccc(C)c(S(=O)(=O)N(C)C2CCS(=O)(=O)C2)c1 (stereo not shown) | 7.93
CCOC(=O)c1c(-c2ccc(OC)cc2)oc2cc(Br)c(O)cc12 | 13.8
CCN1CCN(c2ccc(NC(=O)c3ccc(F)cc3)cc2Cl)CC1 | -66.8
CCCC(C)c1nc(C(N)=O)c2[nH]c(=O)n(-c3ccc(OC)c(OC)c3)c2n1 (stereo not shown) | 6.1
NS(=O)(=O)c1ccc(SCc2ccccc2)nc1 | 12.8
CCC(c1nnnn1C(C)(C)CC)N1CCN(c2ccccc2F)CC1 (stereo not shown) | 21
COc1ccc(OC)c(NS(=O)(=O)c2c(C(=O)N3CCCCCC3)c(C)n(C)c2C)c1 | 14.7
COC(=O)/C=C/C(=O)Nc1cccc(C(F)(F)F)c1 | 7.93
CC(=O)N1c2ccc(S(=O)(=O)N3CCC(C(=O)NC4CCCCC4C)CC3)cc2CC1C (stereo not shown) | 13.4
O=C(NCCO)C(=O)NCC1OCCCN1S(=O)(=O)c1ccc2c(c1)OCCO2 (stereo not shown) | -6.45
CS(=O)(=O)c1ccc2nc(NC(=O)CN3CCOCC3)sc2c1 | 19.1
O=C(c1cccc(S(=O)(=O)N2CCOCC2)c1)N1CCCC(C(F)(F)F)C1 (stereo not shown) | 6.63
